Screen size: about 52,000 compounds; about 4,300 (8.3%) were called active. Cut-off read from the data, not from the text of the source: active = survival mostly below about 52% (no sharp cut-off); inactive = mostly above about 56%. This is one part of the list.
system: DeltatarO mutant; test: growth inhibition of S. aureus wild type versus tarO mutant, primary screen, teichoic acid synthesis inhibitors, RN4220, OD600 (AID 463173); conditions: OD600, 18 h, stronger effect = lower value, screened at 18.75 µg/mL (by protocol)

SMILES	survival
CCC1Oc2ccc(C)cc2N(CC(=O)N2CCN(c3ccccc3OC)CC2)C1=O (configuration not stated)	inactive: 88%
CCOc1ccc(CNC(=O)CN2N=C(c3ccccc3)CCC2=O)cc1OC	inactive: 128%
Cc1ccc(-n2ncc(C(=O)NCCN3CCN(C)CC3)c2C2CCN(C(=O)OC(C)(C)C)CC2)cc1	inactive: 67%
Cc1nc(C)c(-c2ccc(SCC(=O)Nc3cccc(C)c3C)nn2)s1	inactive: 101%
Cc1ccc(CNC(=O)CSc2nc3ccsc3c(=O)n2-c2ccc(Br)cc2)cc1	inactive: 55%
Cn1c(C(=O)NCCc2ccccc2)cc2sc(Cl)cc21	inactive: 110%
CCOC(=O)N1CCN(c2ncc3c(n2)CC(c2ccc(Cl)cc2)CC3=O)CC1 (configuration not stated)	inactive: 75%
CC(=O)NC(C)c1nc2ccccc2n1Cc1ccccc1Cl (configuration not stated)	inactive: 83%
CCOCCCNC(=O)c1ccc(Cn2c(=O)c3cccn3c3cccnc32)cc1	inactive: 58%
Cc1ccc(C)c(NC(=O)C2CCCN2S(=O)(=O)c2ccc3c(c2)n(C)c(=O)c(=O)n3C)c1 (configuration not stated)	active: 38%
CCOC(=O)CCCCN(Cc1ccccc1F)S(=O)(=O)c1ccc(F)c(C(=O)Nc2cc(Cl)cc(Cl)c2)c1	inactive: 87%
COc1cc(-c2noc(-c3ccc(NC4CCCC4)c([N+](=O)[O-])c3)n2)cc(OC)c1OC	inactive: 56%
COc1ccc(-c2noc(-c3cc(-c4ccc(F)cc4)n[nH]3)n2)cc1	inactive: 96%
O=C(NCc1ccc(F)cc1)c1nnc(Cc2cccc(F)c2)o1	inactive: 81%
CCOc1ccc(NC(=O)Nc2cc3c(cc2N2CCCCC2)n(C)c(=O)n3C)cc1	inactive: 102%
COc1cc(NC(=O)CN2CCCN(S(=O)(=O)c3ccc(F)cc3)CC2)cc(OC)c1	inactive: 74%
O=C(Nc1ccccc1Br)c1cc(S(=O)(=O)NC2CCCCC2)ccc1F	inactive: 119%
CCOC(=O)c1cc(S(=O)(=O)Nc2c(C)cc(C)cc2C)[nH]n1	inactive: 94%
Cc1ccc2nc(-c3ccc(NC(=O)COc4ccccc4C(C)(C)C)cc3)sc2c1	inactive: 114%
CCOC(=O)C1CCN(C(=O)c2ccc3c(c2)sc2nc(-c4ccc(OC)cc4)cn23)CC1	inactive: 78%
CCOc1ccc(S(=O)(=O)NCc2nc3cccnc3n2Cc2ccccc2OC)cc1	inactive: 89%
CCCOc1ccc(-c2nc3ccc(Br)cc3c(=O)o2)cc1	inactive: 81%

SMILES	survival
CCCCNC(=O)CSc1nc2n[nH]c(C)c2c(=N)n1-c1cccc(C)c1	inactive: 89%
Cc1c(C(=O)OC2CCCCCC2)[nH]c2c1C(=O)CC(c1ccccc1)C2 (configuration not stated)	inactive: 92%
Cc1nc2ccc(S(=O)(=O)NC(CC(C)C)C(=O)NCc3ccc(Cl)cc3)cc2s1 (configuration not stated)	inactive: 66%
COc1ccc(C2=NC(C)(C)N(CC(=O)Nc3cc(OC)cc(OC)c3)C2=O)cc1	inactive: 107%
CN(c1ccc(F)cc1)S(=O)(=O)N1CCCC(C(=O)NCCc2ccccc2)C1 (configuration not stated)	inactive: 105%
Cc1ccc(-c2cc3nccc(-c4cc([N+](=O)[O-])ccc4O)n3n2)cc1	active: 29%
CCN1CCN(c2cc(C)c3cc(NC(=O)/C=C/c4cccc(OC)c4OC)ccc3n2)CC1	active: 43%
COc1ccc(-c2nc3sc(CCNC(=O)C(=O)Nc4ccc(C)c(C)c4)c(C)n3n2)cc1	inactive: 86%
Cc1ccc(C)c(Cn2c(=O)n(CCCC(=O)NCCc3ccc(Cl)cc3)c(=O)c3ccccc32)c1	inactive: 89%
O=C(COc1ccc(Cl)cc1)NCC(c1cccs1)S(=O)(=O)c1ccc(F)cc1 (configuration not stated)	inactive: 78%
CC1=C(C(=O)N2CCN(c3ccc(Cl)cc3)CC2)C2(CCC(C)CC2)OC1=O (configuration not stated)	inactive: 121%
CCN(CC)C(=O)Cn1c(=O)sc2ccccc21	inactive: 85%
CCOC(=O)C1CCCN(c2cc(C)nc3cc(-c4ccc(Cl)cc4)nn23)C1 (configuration not stated)	inactive: 101%
O=C(Cn1c(=O)n(Cc2ccccc2)c(=O)c2sc3ccccc3c21)Nc1ccc(F)cc1	inactive: 48%
CCCCN(CC)CCCNC(=O)c1cc2c(=O)oc3ccc(C)cc3c2s1	inactive: 112%
COc1ccc(OC)c(-c2csc(-c3c(N)c(C(=O)c4ccc(Cl)cc4)n4ccccc34)n2)c1	inactive: 94%
CCOc1cc(CNC(=O)NC2COc3ccccc3C2)cc(OCC)c1OCC (configuration not stated)	inactive: 144%
Cn1c(=O)[nH]c(=O)c2[nH]c(N(CCO)CCO)nc21	inactive: 117%
CC(C)c1ccc(NC(=O)c2cnc3sc(N4CCCC4)nn3c2=O)cc1	inactive: 80%
CCOC(=O)c1ccc(NC(=O)CC2C(=O)N(c3cccc(C)c3)C(=O)N2CCOC)cc1 (configuration not stated)	inactive: 74%
CCOc1ccc(-c2nonc2NC(=O)c2ccco2)cc1OCC	inactive: 104%
COC(=O)c1ccccc1NC(=O)COC(=O)c1ccco1	inactive: 78%

SMILES	survival
CCOc1ccccc1CNC(=O)c1cc2c(=O)n(Cc3ccco3)ccc2nc1C	inactive: 76%
Cc1ccc(NC(=O)C(=O)NCC(c2ccc3c(c2)OCO3)N2CCN(c3ccccc3)CC2)cc1 (configuration not stated)	inactive: 101%
O=C(c1cccs1)c1cn(CCOc2ccccc2Cl)c2ccccc12	inactive: 72%
CCN(C(=O)C(Cc1ccccc1)NS(=O)(=O)c1cccc2nsnc12)c1ccccc1 (configuration not stated)	inactive: 75%
COc1cc(C(=O)NCCc2csc3nc(-c4ccccc4C)nn23)cc(OC)c1OC	inactive: 86%
CC(C)c1ccc(NC(=O)CC2Oc3ccccc3NC2=O)cc1 (configuration not stated)	inactive: 71%
Cc1cc(OCC(=O)N(Cc2ccc(N(C)C)cc2)C2CCS(=O)(=O)C2)cc(C)c1Cl (configuration not stated)	inactive: 97%
Cc1ccc(Cl)cc1NC(=O)CN1C(=O)COc2ccc(S(=O)(=O)N3CCCCCC3)cc21	inactive: 73%
COc1ccccc1CCNC(=O)CCc1c(C)c2cc3c(C)c(C)oc3cc2oc1=O	inactive: 101%
CCCCN(C)CCCNC(=O)c1cc(-c2cccnc2)nc2ccccc12	inactive: 83%
CCOC(=O)C1CCCN(C(=O)Cn2ncn3c(cc4sc(CC)cc43)c2=O)C1 (configuration not stated)	inactive: 70%
COC(=O)c1ccc(OC)c(Cn2c(=O)n(-c3cccc(Cl)c3)c(=O)c3c4c(sc32)CN(C(C)=O)CC4)c1	inactive: 62%
COc1cc(OC)c(NC(=O)Cc2ccc(-n3c(C)nc4cccnc43)cc2)cc1Cl	inactive: 123%
O=C(Nc1ccc(F)cc1)[C@@H](c1ccccc1)N1Cc2ccccc2C1=O	active: 38%
CCOc1ccc(CCNC(=O)c2ccc(-c3nc(COc4ccc(C)cc4)c(C)o3)cc2)cc1	inactive: 86%
COc1ccc(NC(=O)CSc2nc(-c3ccc(F)cc3)c3cccc(C)c3n2)cc1	inactive: 82%
COCCCn1c(SCC(=O)Nc2ccccc2OC)nc2c(sc3ccccc32)c1=O	inactive: 77%
COc1ccc(CCNC(=O)c2ccc(Cn3c(=O)c4ccccc4n(Cc4ccc(C)cc4)c3=O)cc2)cc1OC	inactive: 102%
COc1ccc(C2C(=O)N(C3CCCCCC3)CC(=O)N2CCc2ccc(OC)c(OC)c2)cc1 (configuration not stated)	inactive: 77%
Cc1ccc2nc(CN3CCN(C(=O)Nc4ccc(C)c(F)c4)CC3)oc2c1	inactive: 83%
CCCCCC(=O)Nc1ccc(Cc2ccncc2)cc1	inactive: 88%
CCCOc1ccc(-c2nc(N3CCC(C)CC3)c3ccccc3n2)cc1	active: -1%

SMILES	survival
CCCn1c2ccccc2c2cnn(CC(=O)N(Cc3ccccc3)C(C)C)c(=O)c21	inactive: 126%
CCCCOc1ccc(S(=O)(=O)NCc2csc(-c3ccc(OC)cc3)n2)cc1	inactive: 88%
COc1ccc(-c2noc(N3CCC(C(=O)N(C)c4cc(Cl)ccc4OC)CC3)n2)cc1	inactive: 50%
O=C(Nn1cnnc1)c1cc2ccccc2oc1=O	inactive: 97%
COc1ccc(CCNC(=O)CCc2cn(Cc3ccc(C)cc3)c3ccccc23)c(OC)c1OC	inactive: 52%
CCC(C)NC(=O)c1[nH]c2cc(C)ccc2c1Sc1ccc(Cl)cc1 (configuration not stated)	inactive: 88%
CCOc1cc2[nH]c(=O)n(CCCCC(=O)N3CCN(c4ccccc4)CC3)c(=O)c2cc1OCC	inactive: 77%
Cc1cccc(C)c1OCC(=O)Nc1c(C(=O)c2ccc(Br)cc2)oc2ccccc12	inactive: 87%
COc1ccc2oc(=O)c(-c3cn4c(n3)sc3cc(F)ccc34)cc2c1	inactive: 76%
O=C(CN1C(=O)COc2ccc(S(=O)(=O)N3CCCCCC3)cc21)N1CCN(c2cccc(C(F)(F)F)c2)CC1	active: 61%
Cc1cccc(N2CCN(C(=O)C3CCN(S(=O)(=O)c4c(C)noc4C)CC3)CC2)c1C	inactive: 97%
COc1ccccc1Cn1cc(C(=O)c2ccc(F)cc2)c(=O)c2cc3c(cc21)OCO3	inactive: 98%
Cc1ccc(Nc2ncc(C(=O)N3CCN(c4cccc(Cl)c4)CC3)c3ccccc23)cc1Cl	inactive: 67%
Cc1ccc2oc(C(=O)Nc3cccc(-c4nc5ccccc5s4)c3)c(C)c2c1	inactive: 55%
Cc1ccccc1OCc1nnc(SCC(=O)O)n1CCc1ccccc1	inactive: 84%
Cc1ccc(C)c(N2CCN(C(=O)c3cc(S(=O)(=O)N4CCC(C)CC4)cn3C)CC2)c1	inactive: 81%
COc1ccc(CC(=O)NCC(c2cccs2)S(=O)(=O)c2ccc(Cl)cc2)cc1 (configuration not stated)	inactive: 77%
Cc1cn(C(=O)c2ccccc2)c(=O)[nH]c1=O	active: 57%
Cc1c(C(=O)N2CCCC2)oc2c1-c1nn(CC(=O)NC(C)c3ccccc3)cc1CC2 (configuration not stated)	inactive: 72%
Cc1ccc(OC(=O)c2ccco2)cc1C	inactive: 61%
Cc1cc(F)ccc1NC(=O)c1ccc2nc(Cc3ccccc3)oc2c1	inactive: 83%

— PubChem BioAssay AID463173 (ICCB-Longwood Screening Facility, Harvard Medical School, 2010)
